Source: publication PMC6919601, “Identification of Plasmodium dipeptidyl aminopeptidase allosteric inhibitors by high throughput screening” (PLoS ONE, 2019)
Among all 110,000 compounds or so, about 230 (0.21%) showed an effect of 50% or more. The list shows a part of the results.

Target: DPAP1 (Plasmodium falciparum, UniProt Q8IIJ9)
Assay: primary screen, percent inhibition; read by cleavage of a fluorogenic dipeptide substrate; higher = more effect of the substance
Parameters: species or system P. falciparum D10 trophozoite lysates; single well
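Further: 30 min substrate incubation versus DMSO and 10 µM JCP410 controls.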

DPAP1, sequence (Q8IIJ9 whole entry, looked up): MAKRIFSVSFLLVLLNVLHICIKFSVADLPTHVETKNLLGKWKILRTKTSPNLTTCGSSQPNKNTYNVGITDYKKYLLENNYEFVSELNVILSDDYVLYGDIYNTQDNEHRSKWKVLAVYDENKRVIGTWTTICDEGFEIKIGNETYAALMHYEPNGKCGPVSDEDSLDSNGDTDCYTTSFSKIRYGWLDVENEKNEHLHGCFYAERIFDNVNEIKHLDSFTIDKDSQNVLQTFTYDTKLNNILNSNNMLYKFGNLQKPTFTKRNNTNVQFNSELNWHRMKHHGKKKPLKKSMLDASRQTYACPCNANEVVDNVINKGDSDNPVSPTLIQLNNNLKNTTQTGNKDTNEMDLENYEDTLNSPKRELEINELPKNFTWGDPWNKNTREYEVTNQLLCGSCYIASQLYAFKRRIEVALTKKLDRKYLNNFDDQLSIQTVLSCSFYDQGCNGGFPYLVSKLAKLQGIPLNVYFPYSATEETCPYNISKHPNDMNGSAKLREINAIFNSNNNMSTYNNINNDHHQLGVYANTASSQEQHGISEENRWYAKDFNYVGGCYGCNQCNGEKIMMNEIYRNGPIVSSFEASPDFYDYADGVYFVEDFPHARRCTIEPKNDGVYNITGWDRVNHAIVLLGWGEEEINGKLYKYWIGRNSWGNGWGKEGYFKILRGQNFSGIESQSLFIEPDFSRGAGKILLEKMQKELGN

SMILES | % Inhibition @ 10 uM
COc1ccc(NC(=O)C(C)Oc2cccc(C)c2)c(OC)c1 (centres unmarked) | 0.931%
CCN(CC)C(=O)CSc1nc(-c2ccco2)cc(C(F)(F)F)c1C#N | 0.722%
O=C(COc1ccc(Cl)cc1)N(C1CCCCC1)C1CCCCC1 | 4.54%
c1ccc2c(OCCCCN3CCCCC3)cccc2c1 | 0.135%
CC1CCC(NC(=O)c2nnc(Cc3c(F)cccc3Cl)o2)CC1 (centres unmarked) | 3.99%
O=C(Cn1ncc2c3ccccc3nc-2c1O)Nc1cc(-c2cccc(F)c2)no1 | -4.51%
COc1ccc(/C=C/C(=O)NCCCN2CCC(N(C)C3CCCCCC3)CC2)cc1 | 0.689%
Cc1nc2c3ccccc3n3c(CCCC(=O)N4CCOCC4)nnc3n2n1 | -10.6%
CC1CCCC(NCCN2CCOCC2)C1 (centres unmarked) | -3.35%
COc1nc(N2CCCC2)nc(-n2ccnc2)n1 | -6.09%
Cc1ccc2c(c1)C(=O)N(CCCCO)C2=O | -1.52%
Cc1cc2nc(SCCN3CCCC3)[nH]c2cc1C | 3.01%
CCN(CC)S(=O)(=O)c1cc(C(=O)O)ccc1Br | 2.54%
COc1ccccc1-c1nc(S(=O)(=O)c2ccc(C)cc2)c(N2CCOCC2)o1 | 2.27%
CO/C(O)=C1\C(C)=NC2=C(C(=O)CC(c3ccccc3Cl)C2)C1c1cc(OC)c(OC)c(OC)c1 (centres unmarked) | 4.35%
O=C(Nc1ccc(-c2cnc(-c3ccc(NC(=O)C4CC4)cc3)nc2)cc1)C1CC1 | 0.189%
CCSC1=N/C(=C\c2ccc3c(c2)OCO3)C(=O)S1 | 0.884%
Cc1cccc(-n2cc3c(c2-c2ccccc2)c(=O)n(C)c(=O)n3C)c1 | -5.85%
CC(NC(=O)Cn1sc2ccccc2c1=O)c1ccc2c(c1)OCCO2 (centres unmarked) | -4.59%
C=CCNc1nc(OC(C(F)(F)F)C(F)(F)F)nc(N2CCOCC2)n1 | 3.34%
c1cncc(-c2nc3ccc4ccccc4c3c3c2CCC3)c1 | -9.49%
OCCN(Cc1ccccc1)Cc1cc(F)ccc1F | 1.57%
CC(Oc1ccccc1)C(=O)NCc1ccco1 (centres unmarked) | -3.85%
O=C(c1ccccc1)N1CCN(C(=O)c2ccccc2)CC1 | -4.24%
CN1C(=O)c2ccccc2C(C(=O)NCCCN2CCc3ccccc3C2)C1c1c[nH]c2ccccc12 (centres unmarked) | -0.668%

SMILES | % Inhibition @ 10 uM
CCN1C(=O)C(=CNc2ccc(F)cc2)C(=O)N(CC)C1=O | -4.75%
CCCOc1ccc(C2CC(=O)Nc3c2ccc2ccccc32)cc1OC (centres unmarked) | 2.17%
CN1C(=O)C(C)(C(=O)Nc2ccccc2Cl)c2ccccc21 (centres unmarked) | -2.32%
COc1cccc(OCC(O)CN2CCCC(C)C2)c1 (centres unmarked) | -1.44%
Cc1nnc(N2CCC(C(=O)NCCCOC(C)C)CC2)c2nn(-c3ccccc3)c(C)c12 | -2.49%
Cc1n[nH]c(C)c1CCc1nc2c3ccccc3nc(NCc3ccccc3Cl)n2n1 | 0.981%
Cc1nn(C(C)C(=O)NC2CCN(Cc3ccccc3)CC2)c(=O)c2c1sc1ccccc12 (centres unmarked) | -1.33%
COc1cc(OC)c2cc(OC)c(OC)cc2n1 | -0.478%
Cc1cccnc1NC(=O)C(CCS(C)(=O)=O)N1Cc2ccccc2C1=O (centres unmarked) | -4.38%
N#Cc1c(SCC(=O)c2ccccc2)nc2c(c1-c1cccnc1)CCCC2 | 0.484%
Oc1ccc(Nc2nc(N3CCOCC3)c3ccccc3n2)cc1 | 0.843%
CCCCNC(=O)c1nc(C)c(C)nc1C(=O)Nc1ccccc1 | 5.24%
CC(C)(CO)NC(=O)c1cc(-c2ccccc2F)no1 | -0.326%
O=C1CC(N2CCN(c3ccc(F)cc3)CC2)C(=O)N1c1ccc(Br)cc1 (centres unmarked) | -2.63%
CCCCN(C)CCCNC(=O)Cn1nc(-c2ccccc2)ccc1=O | 0.514%
CCCCCC(=O)Nc1nc(-c2ccccc2)c(C)s1 | -1.06%
CN1CCN(Cc2nnc(S)n2-c2ccccc2Cl)CC1 | 5.42%
C=CCn1cc(/C=C2/SC(=O)N(CC)C2=O)c2ccccc21 | -0.795%
CCc1nnc(SCC(=O)NCCc2ccc(OC)c(OC)c2)c2cc3sccc3n12 | 4.92%
CCCN1C(=O)c2[nH]nc(-c3ccccc3O)c2C1c1ccc(OCC)cc1 (centres unmarked) | 0.366%
CCCN1CCN(CCCNC(=O)Cn2nc(C)n3c(cc4cc(OC)ccc43)c2=O)CC1 | 3.29%
Fc1ccc(N2N=C(/C=C/c3cccs3)CC2c2cccs2)c(F)c1 (centres unmarked) | -2.6%
Cc1nc2ccccc2c(O)c1S(=O)(=O)O | 9.08%
Cc1ccc(C(C)C)c(Oc2ccc(NC(=O)CCC(=O)O)cc2)c1 | 2.02%
NC1=C(c2nc3ccccc3[nH]2)C(=O)CN1CCc1ccccc1 | 0.486%

SMILES | % Inhibition @ 10 uM
O=C(CSc1nnc(C2COc3ccccc3O2)o1)N1CCCC1 (centres unmarked) | 8.14%
Cc1nc2c3cccnc3nn2c(C)c1CCC(=O)NCc1ccc2c(c1)OCO2 | 1.62%
Cn1c(C(=O)N2CCC(C(=O)N3CCN(C4CCCCC4)CC3)CC2)cc2sccc21 | 0.137%
O=C1NC(=O)C(=Cc2ccc(-c3ccc([N+](=O)[O-])cc3)o2)C(=O)N1 | 2.13%
CSc1ncc(C(=O)NC(C)c2ccccc2)c(-c2ccccc2)n1 (centres unmarked) | -3.01%
COc1ccc(Cn2nnc3c(O)nc(C(=O)NCCc4ccc(F)cc4)nc32)cc1OC | -1.82%
COc1cc2c(C(=O)NCCC3=CCCCC3)cn(CC(C)C)c(=O)c2cc1OC | 4.02%
CCOc1ccccc1NS(=O)(=O)c1ccc(OC)cc1 | -1.37%
C=CCOC(=O)C1=C(C)N=C2CC(C)(C)CC(O)=C2C1c1cccc(F)c1 (centres unmarked) | -1.82%
COc1ccc(C)cc1S(=O)(=O)NCC12CC3CC(CC(C3)C1)C2 | 1.72%
COC(=O)c1ccc(C2c3c(oc4ccc(C)cc4c3=O)C(=O)N2c2ccccn2)cc1 (centres unmarked) | 0.415%
O=C(/C=C/c1cccc(Cl)c1)NCCCNC1=NS(=O)(=O)c2ccccc21 | 8.58%
Cc1cc(C=O)cc2c3ccccc3n(C)c12 | -1.68%
COc1ccc(C2(O)C[N+](c3ccccc3)=C3SCCCN32)c(F)c1 (centres unmarked) | 7.33%
COc1cccc(C(=O)Nc2ccc(S(=O)(=O)N3CCC(C)CC3)cc2)c1 | 0.13%
Cc1cc(C)c2nc(N3CCC(C(=O)NC(C)c4ccccc4)CC3)sc2c1 (centres unmarked) | -3.35%
COCCNC(=O)C1CCN(c2nc(-c3ccc(OC)cc3)no2)CC1 | -3.1%
CCO/C(O)=C1/C(C)=Nc2nc(SCc3cccnc3)nn2C1c1ccccc1C (centres unmarked) | -6.08%
O=C(c1ccccc1F)N1CCN(Cc2ccncc2)CC1 | 8.6%
COc1cc2c(cc1OC)C(COc1ccc3c(C)cc(=O)oc3c1)N(C(=O)C1CC1)CC2 (centres unmarked) | 4.14%
CCOC(=O)c1cc(S(=O)(=O)N2CCOCC2)cn1C | -1.06%
CC(Cc1cccc(C(F)(F)F)c1)N[C@H]1CC[C@H](O)CC1 (some centres unmarked) | -1.41%
COc1cc(C2CC(C(F)(F)F)n3ncc(C(=O)NC(C)(C)C)c3N2)cc(OC)c1OC (centres unmarked) | 0.0504%
Cc1occc1C(=O)Nc1cc(C(F)(F)F)ccc1Cl | 1.88%
O=C(CSc1c2c(nc3ccccc13)CCCC2)NCc1ccco1 | -3.23%

SMILES | % Inhibition @ 10 uM
Cc1ccccc1C(=O)c1cccn1CC(=O)NCCN1CCN(C)CC1 | 2.76%
CCCN(CCC)C(=O)C1CCN(c2cc(C)nc3c(-c4ccc(OC)c(OC)c4)c(C)nn23)CC1 | -3.7%
CCOCCCNCc1c(C(=O)O)c(C)n(Cc2ccccc2C)c1C | -0.23%
CC(C)Cn1c2c(c(=O)[nH]c1=O)C(NC(=O)c1ccccc1F)(C(F)(F)F)C(=O)N2 (centres unmarked) | -5.06%
COc1cccc(C(=O)NC2(C(F)(F)F)N=C3SCCN3C2=O)c1 (centres unmarked) | -2.5%
NC(=O)c1cc(NC(=O)C(c2ccccc2)c2ccccc2)c(Cl)cc1Cl | 12.7%
O=C(NCc1ccc(F)cc1)c1nn2c(c1Cl)NC(c1ccco1)CC2C(F)(F)F (centres unmarked) | -1.22%
O=C(Cn1ncn2c(cc3sccc32)c1=O)NC1CCCc2ccccc21 (centres unmarked) | -7.1%
Cc1ccc(-n2c3c(c(O)cc2=O)C(=O)CC(C)(C)C3)cc1 | 2.36%
CCN(c1cccc2ccccc12)S(=O)(=O)c1ccc(Cl)nc1 | -0.116%
CCCCOn1c(C)c(C(=O)OCC)c2c3nonc3ccc21 | -1.52%
COc1ccc(/C=C2\N=C(c3ccc(Cl)cc3Cl)OC2=O)c(OC)c1 | -4.84%
CCOC(=O)c1ccc2nc(NC(=O)CSC3=NC(=O)C(c4ccccc4)C(=O)N3)sc2c1 (centres unmarked) | 22.7%
CSc1ccc(CCNC(=O)Cn2ccc3cc(S(=O)(=O)N4CCC(C)CC4)ccc32)cc1 | 8.75%
Cc1ccc(C)c(NC(=O)/C(=C\c2ccco2)NC(=O)c2ccccc2)c1 | 0.76%
CC(C)CC(C(=O)N1CCN(c2ccccn2)CC1)N1Cc2ccccc2C1=O (centres unmarked) | 0.789%
Cc1ccc(CSc2nc3nccnc3c(=O)n2CCc2ccccc2)cc1 | 5%
CCCn1c2ccccc2c2cnn(CC(=O)NCCN(Cc3ccccc3)C(C)C)c(=O)c21 | -5.56%
COc1cc(O)c(CCC(=O)c2ccc(OC)c(OC)c2)c(OC)c1 | 5.99%
CCOc1cc(NC(=O)C(C(F)(F)F)C(F)(F)F)c(OCC)cc1NC(=O)c1ccccc1 | 1.88%
CCCCN1C(=O)c2cccc3c(Cl)ccc1c23 | -2.28%
NC(=O)CSc1nnc(-c2ccncc2)n1-c1ccc(Cl)cc1 | -3.1%
CCN1C(=O)S/C(=C/c2cn(C)c3ccccc23)C1=O | 3.86%
